From a collection of fitness landscapes (doi:10.1126/science.1257360)
Some of the results follow.

B1: PhoQ; a variant is named by its letters at X, in order, P23837 (parent)
chain: MKKLLRLFFPLSLRVRFLLATAAVVLVLSLAYGMVALIGYSVSFDKTTFRLLRGESNLFYTLAKWENNKLHVELPENIDKQSPTMTLIYDENGQLLWAQRDVPWLMKMIQPDWLKSNGFHEIEADVNDTSLLLSGDHSIQQQLQEVREDDDDAEMTHSVAVNVYPATSRMPKLTIVVVDTIPVELKSSYMVWSWFIYVLSANLLLVIPLLWVAAWWSLRPIEALAKEVRELEEHNRELLNPATTRELTSLVRNLNRLLKSERERYDKYRTTLTDLTHSLKTPLXXLQXXLRSLRSEKMSVSDAEPVMLEQISRISQQIGYYLHRASMRGGTLLSRELHPVAPLLDNLTSALNKVYQRKGVNISLDISPEISFVGEQNDFVEVMGNVLDNACKYCLEFVEISARQTDEHLYIVVEDDGPGIPLSKREVIFDRGQRVDTLRPGQGVGLAVAREITEQYEGKIVAGESMLGGARMEVIFGRQHSAPKDE

Variants of: B1
Test: enrichment ratio after two sorts for PhoP signalling (ratio (wild type AVST 3.29)); higher = more functional
Settings: with PhoP (E. coli)

ERPP and HPGV cannot be ordered by enrichment ratio: at most 0.25 for the first, at most 0.25 for the second.

KYRC and LVRC cannot be ordered by enrichment ratio: at most 0.25 for the first, at most 0.25 for the second.

Compared with YALS, DYDR is lower in enrichment ratio: 5.59 for the first, at most 0.25 for the second.

WIFN and MRKH cannot be ordered by enrichment ratio: at most 0.25 for the first, at most 0.25 for the second.

DYDP and QPRE cannot be ordered by enrichment ratio: at most 0.25 for the first, at most 0.25 for the second.

GNEL and AQWY cannot be ordered by enrichment ratio: at most 0.25 for the first, at most 0.25 for the second.

DCAA and SIFI cannot be ordered by enrichment ratio: at most 0.25 for the first, at most 0.25 for the second.

GKGY and KIYG cannot be ordered by enrichment ratio: at most 0.25 for the first, at most 0.25 for the second.

CVSF and GRGE cannot be ordered by enrichment ratio: at most 0.25 for the first, at most 0.25 for the second.

First: MDAS
Second: GNNL
The enrichment ratio of the first is lower: 0.445 for the first, 2.95 for the second.

Compared with GINA, EVSF is higher in enrichment ratio: at most 0.25 for the first, 2.03 for the second.

CDDF and HDRE cannot be ordered by enrichment ratio: at most 0.25 for the first, at most 0.25 for the second.

WPGR and ESAQ cannot be ordered by enrichment ratio: at most 0.25 for the first, at most 0.25 for the second.

NWKC and VTME cannot be ordered by enrichment ratio: at most 0.25 for the first, at most 0.25 for the second.

QGNK and GRTC cannot be ordered by enrichment ratio: at most 0.25 for the first, at most 0.25 for the second.

FKRK and FMIK cannot be ordered by enrichment ratio: at most 0.25 for the first, at most 0.25 for the second.

NYAQ and TAHE cannot be ordered by enrichment ratio: at most 0.25 for the first, at most 0.25 for the second.

First: PKNT
Second: QAGY
The enrichment ratio of the first is lower: at most 0.25 for the first, 6.46 for the second.

SAYP and KSVD cannot be ordered by enrichment ratio: at most 0.25 for the first, at most 0.25 for the second.

YGYM and GPTW cannot be ordered by enrichment ratio: at most 0.25 for the first, at most 0.25 for the second.

GNRV and QTVP cannot be ordered by enrichment ratio: at most 0.25 for the first, at most 0.25 for the second.

TNII and GMYE cannot be ordered by enrichment ratio: at most 0.25 for the first, at most 0.25 for the second.

GSDM and NCAH cannot be ordered by enrichment ratio: at most 0.25 for the first, at most 0.25 for the second.

RHMH and ETYT cannot be ordered by enrichment ratio: at most 0.25 for the first, at most 0.25 for the second.

GQRG and PKRQ cannot be ordered by enrichment ratio: at most 0.25 for the first, at most 0.25 for the second.

YLYW and IQAA cannot be ordered by enrichment ratio: at most 0.25 for the first, at most 0.25 for the second.

ANFN and DISL cannot be ordered by enrichment ratio: at most 0.25 for the first, at most 0.25 for the second.

MPTC and WGTH cannot be ordered by enrichment ratio: at most 0.25 for the first, at most 0.25 for the second.

MGPM and RVRP cannot be ordered by enrichment ratio: at most 0.25 for the first, at most 0.25 for the second.

INWT and ADGF cannot be ordered by enrichment ratio: at most 0.25 for the first, at most 0.25 for the second.

SPEW and KAGF cannot be ordered by enrichment ratio: at most 0.25 for the first, at most 0.25 for the second.

Compared with SKIY, SHFN is lower in enrichment ratio: 4.42 for the first, at most 0.25 for the second.

YRHY and DIWF cannot be ordered by enrichment ratio: at most 0.25 for the first, at most 0.25 for the second.

SPHP and KWAI cannot be ordered by enrichment ratio: at most 0.25 for the first, at most 0.25 for the second.

First: NPWM
Second: MSYN
The enrichment ratio of the first is lower: at most 0.25 for the first, 3.17 for the second.

QHCW and LFSN cannot be ordered by enrichment ratio: at most 0.25 for the first, at most 0.25 for the second.

HSWE and KDLR cannot be ordered by enrichment ratio: at most 0.25 for the first, at most 0.25 for the second.

Compared with HMCH, AGAH is higher in enrichment ratio: at most 0.25 for the first, 11.2 for the second.

DCMP and AVKR cannot be ordered by enrichment ratio: at most 0.25 for the first, at most 0.25 for the second.

WPFR and KMAY cannot be ordered by enrichment ratio: at most 0.25 for the first, at most 0.25 for the second.

QDCY and RRRD cannot be ordered by enrichment ratio: at most 0.25 for the first, at most 0.25 for the second.

GYCH and VLIC cannot be ordered by enrichment ratio: at most 0.25 for the first, at most 0.25 for the second.

Compared with YEPD, SEGA is higher in enrichment ratio: at most 0.25 for the first, 12 for the second.

Compared with SVNK, MACI is higher in enrichment ratio: at most 0.25 for the first, 8.52 for the second.

IDFT and PWVH cannot be ordered by enrichment ratio: at most 0.25 for the first, at most 0.25 for the second.

ECAS and VDHG cannot be ordered by enrichment ratio: at most 0.25 for the first, at most 0.25 for the second.

GVTR and HNIY cannot be ordered by enrichment ratio: at most 0.25 for the first, at most 0.25 for the second.

QTCA and VRDE cannot be ordered by enrichment ratio: at most 0.25 for the first, at most 0.25 for the second.

RTDR and RLKL cannot be ordered by enrichment ratio: at most 0.25 for the first, at most 0.25 for the second.

KTMY and DMLC cannot be ordered by enrichment ratio: at most 0.25 for the first, at most 0.25 for the second.

SPEI and MPNW cannot be ordered by enrichment ratio: at most 0.25 for the first, at most 0.25 for the second.

EHDR and LTVA cannot be ordered by enrichment ratio: at most 0.25 for the first, at most 0.25 for the second.

ENWQ and YGHS cannot be ordered by enrichment ratio: at most 0.25 for the first, at most 0.25 for the second.

DLRP and YRFS cannot be ordered by enrichment ratio: at most 0.25 for the first, at most 0.25 for the second.

First: TTMA
Second: SFYR
The enrichment ratio of the first is higher: 13.4 for the first, at most 0.25 for the second.

ASKQ and LIYG cannot be ordered by enrichment ratio: at most 0.25 for the first, at most 0.25 for the second.

Compared with TGCA, RDHQ is lower in enrichment ratio: 19.8 for the first, at most 0.25 for the second.

HHRP and TFKV cannot be ordered by enrichment ratio: at most 0.25 for the first, at most 0.25 for the second.

PHMD and HDPS cannot be ordered by enrichment ratio: at most 0.25 for the first, at most 0.25 for the second.

YWMH and PMHN cannot be ordered by enrichment ratio: at most 0.25 for the first, at most 0.25 for the second.

Compared with FHRY, YNLG is higher in enrichment ratio: at most 0.25 for the first, 5.88 for the second.

KHDF and LEMP cannot be ordered by enrichment ratio: at most 0.25 for the first, at most 0.25 for the second.

HFPK and NYVP cannot be ordered by enrichment ratio: at most 0.25 for the first, at most 0.25 for the second.

VEFA and RFNI cannot be ordered by enrichment ratio: at most 0.25 for the first, at most 0.25 for the second.

Compared with GMLF, VRIY is lower in enrichment ratio: 7.41 for the first, at most 0.25 for the second.

DYVL and FINV cannot be ordered by enrichment ratio: at most 0.25 for the first, at most 0.25 for the second.

EKYH and IQFV cannot be ordered by enrichment ratio: at most 0.25 for the first, at most 0.25 for the second.

HHVC and NYVT cannot be ordered by enrichment ratio: at most 0.25 for the first, at most 0.25 for the second.

VMMY and AGKE cannot be ordered by enrichment ratio: at most 0.25 for the first, at most 0.25 for the second.

YCRM and WNAL cannot be ordered by enrichment ratio: at most 0.25 for the first, at most 0.25 for the second.

SCRQ and IEVY cannot be ordered by enrichment ratio: at most 0.25 for the first, at most 0.25 for the second.

GMIQ and YHYW cannot be ordered by enrichment ratio: at most 0.25 for the first, at most 0.25 for the second.

SYRY and DKFS cannot be ordered by enrichment ratio: at most 0.25 for the first, at most 0.25 for the second.

KISA and QICG cannot be ordered by enrichment ratio: at most 0.25 for the first, at most 0.25 for the second.

AWYP and VKKC cannot be ordered by enrichment ratio: at most 0.25 for the first, at most 0.25 for the second.

First: TEHV
Second: HCWD
The enrichment ratio of the first is higher: 10.3 for the first, at most 0.25 for the second.

With ATPI the enrichment ratio was 8.1.
